Laboratory results: PubChem BioAssay AID1745853 (National Center for Advancing Translational Sciences (NCATS), 2022)
This is one part of the list. These are further read-outs of the screen, such as a control signal, another cell line or another target. No call is given for them.

Tests used:
Assay in all cases: Primary Screen for Target Class Profiling of Small Molecule Inhibitors of Methyltransferases
[1] = biological target: Glycine N-methyltransferase (Homo sapiens) (UniProt Q14749); settings: purified enzyme, MTase-Glo SAH luminescence; measured here: GNMT inhibition; at 40 µM; stronger effect = lower value
Excerpt: (§1) PI: Matthew D. Hall Ph.D. and Quinlin M. Hanson Ph.D.
(§2) National Center for Advancing Translational Sciences (NCATS)
(§3) National Institute of Health (NIH), Rockville, MD
(§4) Target class profiling (TCP) is a chemical biology approach amenable to investigating understudied biological targets. TCP is achieved by developing a generalizable assay platform and applying it to screen a curated set of compound libraries against representative members of a target class. Small molecule methyltransferases (SMMTase) are a subclass of methyltransferase that act on metabolites to modulate signaling pathways, metabolize xenobiotics, or balance the available methyl pool. We screened four curated libraries totaling 27,574 unique compounds against the SMMTases nicotinamide N-methyltransferase (NNMT), phenylethanolamine N-methyltransferase (PNMT), histamine N-methyltransferase (HNMT), glycine N-methyltransferase (GNMT), catechol O-methyltransferase (COMT), and guanidinoacetate N-methyltransferase (GAMT). The data generated by this TCP can be leveraged for informed tool molecule development. For example, in the associated publication we identified a chemotype of HNMT-selective inhibitors. Additionally, we identified a putative SMMTase-selective inhibitor with potential as a tool molecule for studying broader methyltransferase biology.
(§5) High-through put screening assays were developed at the National Center for Advancing Translational Science (NCATS) for the enzymes NNMT, PNMT, HNMT, GNMT, COMT, and GAMT. Enzymatic activity was measured as a function of SAM cofactor conversion using the MTase Glo kit (Promega) for all enzymes. All assays were performed in 1536-well format with substrates and SAM concentrations at KM values. Enzyme concentration and assay timing were optimized for 10-20% SAM conversion. Initial screening of 27,574 compounds was done as single-point assays using the highest compound concentration (40 uM). […] These compounds were replated in 11-point dose response and assayed against NNMT, PNMT, HNMT, GNMT, COMT, GAMT, and a counter-assay. The IC50 and efficacy (maximal response) values were determined for each dose-response curve. These values are also accounted for in the area under the curve (AUC) values.
(§6) PROTOCOL TABLE (as described by Inglese J, Shamu CE and Guy RK. 2007)
(§7) SEQUENCE No. (e.g., 1, 2, 3, etc.); […] (e.g., Cells, Incubation, Reagent, etc.); VALUE; DESCRIPTION.
(§8) 1; Reagent; 2 uL; SMMTase Enzyme (2x) in reaction buffer, columns 1- 48.
(§9) 2; Reagent; 1 uL; SAM (4x) in reaction buffer, columns 1-48.
(§10) 3; Controls; 23 nL; DMSO in column 4; sinefungin in DMSO (0 uM - 40 uM) in 7-point 1:2 dilution series (n = 2) in column 2.
(§11) 4; Compounds; 23 nL; Columns 5-48.
(§12) 5; Reagent; 1 uL; Substrate (4x) in reaction buffer, columns 2-48.
(§13) 6; Time; 20-30 min; Incubation.
(§14) 7; Reagent; 1 uL; MTase-Glo reagent (5X), columns 1-48.
(§15) 8; Time; 30 min; Incubation.
(§16) 9; Reagent; 5 uL; MTase-Glo Detection reagent, columns 1-48.
(§17) 10; Time; 30 min; Incubation, luminescence evolution.
(§18) 11; Detection; Luminescence; ViewLux uHTS Microplate Imager (PerkinElmer).
(§19) NOTES (numbers refer to Sequence numbers above)
(§20) 1, 2, 5. White Medium Binding Greiner 1536-well plates (Cat #789175-F, Greiner Bio-One, Monroe, NC); Reaction buffer: 50 mM Tris, pH 8.0, 3 mM MgCl2, 1 mM EDTA, 50 mM NaCl, 1 mM DTT, and 0.1 mg/mL BSA. Evaporation was prevented by covering assay plates with metal lids containing holes to allow gas diffusion.
(§21) 1. Six SMMTase were profiled: HNMT, GNMT, PNMT, COMT, NNMT, GAMT
(§22) 5. The corresponding substrate was used for each enzyme: HNMT - 5.3 uM Histamine; GNMT - >500 uM Glycine; PNMT - 16.2 uM Norephinephrine; COMT - 13.7 uM Norephinephrine; NNMT - 3.8 uM Nicotinamide; GAMT - 2.5 uM Guanidinoacetate.6, 8, 10. Room temperature
(§23) 6. Final reaction conditions: 10 nM COMT, 5 uM SAM, 15 uM norepinephrine, 50 mM Tris, pH 8.0, 3 mM MgCl2, 1 mM EDTA, 50 mM NaCl, 1 mM DTT, and 0.1 mg/mL BSA; refer to tables 2 and S1 for specific timing.
8. […]

[2] = biological target: Guanidinoacetate N-methyltransferase (Homo sapiens) (UniProt Q14353); settings: purified enzyme, MTase-Glo SAH luminescence; measured here: GAMT inhibition; at 40 µM; stronger effect = lower value
Excerpt: as §1, §2, §3, §4, §5, §6, §7, §8, §9, §10, §11, §12, §13, §14, §15, §16, §17, §18, §19, §20, §21, §22, §23
8. […]

[3] = biological target: Histamine N-methyltransferase (Homo sapiens) (UniProt P50135); settings: purified enzyme, MTase-Glo SAH luminescence; measured here: HNMT inhibition; at 40 µM; stronger effect = lower value
Excerpt: as §1, §2, §3, §4, §5, §6, §7, §8, §9, §10, §11, §12, §13, §14, §15, §16, §17, §18, §19, §20, §21, §22, §23
8. […]

[4] = biological target: Nicotinamide N-methyltransferase (Homo sapiens) (UniProt P40261); settings: purified enzyme, MTase-Glo SAH luminescence; measured here: NNMT inhibition; at 40 µM; stronger effect = lower value
Excerpt: as §1, §2, §3, §4, §5, §6, §7, §8, §9, §10, §11, §12, §13, §14, §15, §16, §17, §18, §19, §20, §21, §22, §23
8. […]

[5] = biological target: Phenylethanolamine N-methyltransferase (Homo sapiens) (UniProt P11086); settings: purified enzyme, MTase-Glo SAH luminescence; measured here: PNMT inhibition; at 40 µM; stronger effect = lower value
Excerpt: as §1, §2, §3, §4, §5, §6, §7, §8, §9, §10, §11, §12, §13, §14, §15, §16, §17, §18, §19, §20, §21, §22, §23
8. […]
% is set by controls: 0 for no effect and ±100 for the full control effect.

| SMILES | activity change, negative = inhibition [1] | activity change, negative = inhibition [2] | activity change, negative = inhibition [3] | activity change, negative = inhibition [4] | activity change, negative = inhibition [5] |
| --- | --- | --- | --- | --- | --- |
| COC(=O)c1cc2n(n1)CC(C)(C(=O)NC1CCC(C)CC1)N(CCc1cccs1)C2=O (stereo not given) | -2.99% | 6.36% | -10.3% | -2.51% | 0.988% |
| CC1=CC(=O)[C@]2(O[C@@H]3O[C@@H](C)[C@H](O)[C@@H](O)[C@H]3O)C=CO[C@@H](O[C@@H]3O[C@H](CO)[C@@H](O)[C@H](O)[C@H]3O)[C@H]12 | -0.406% | 2.28% | -1.87% | -8.78% | -0.834% |
| CC(C)c1ccc(NC(=O)CSc2nnc3[nH]c(=O)c(C(C)(C)C)nn23)cc1 | 5.88% | 0% | 9.11% | -8.34% | 0.555% |
| C[C@@]1(C2CCCC2)Cc2cc(OCC(=O)O)c(Cl)c(Cl)c2C1=O | -5.28% | 9.19% | 1.89% | -50.6% | 3.94% |
| COc1cccc(CCC(=O)NC2CCN(c3cc(C(F)(F)F)nc(C)n3)CC2)c1 | -3.4% | -0.84% | 1.31% | -0.159% | 11.6% |
| CCOc1ccccc1CN1C(=O)c2nc3ccccc3n2CC1(C)C(=O)NCc1ccccc1 (stereo not given) | -4.14% | 0% | 4.18% | 1.37% | 0.012% |
| CCCn1c(=O)c2ccc(C(=O)NC3CCCCC3)cc2n2c(=O)n(Cc3ccccc3Cl)nc12 | -3.64% | 0.288% | -9.73% | -5.59% | -1.39% |
| COc1ccccc1CNC(=O)C1(C)Cn2c(cc3ccccc32)C(=O)N1Cc1ccc(OC)c(OC)c1 (stereo not given) | 1.03% | 0% | 2.1% | -46.2% | 1.69% |
| NS(=O)(=O)c1ccc(N2CCN(CC[C@@H]3OCCc4ccccc43)CC2)cc1 | 2.35% | -0.831% | 1.7% | -15.2% | -5.61% |
| Oc1cc2c(cc1O)C(c1ccccc1)CNCC2 (stereo not given) | -50.9% | 12.3% | -8.95% | -3.84% | 7.46% |
| Cc1ccc(Cn2c(=O)c3ccccc3n3c(=O)n(CC(=O)Nc4ccc(C)cc4C)nc23)cc1 | 6.18% | 0% | 7.91% | 6.12% | 4.65% |
| CCc1cccc(NC(=O)CN(C)S(=O)(=O)c2ccc3[nH]c4c(c3c2)CCCC4)c1 | 1.31% | 0.568% | 2.1% | 0.838% | 1.83% |
| COc1ccccc1CNC(=O)C1(C)Cn2c(cc3ccccc32)C(=O)N1CCN1CCOCC1 (stereo not given) | 3.04% | 2.9% | 4.53% | 2.9% | 2.07% |
| Cn1ccc(NC(=O)[C@@H]2C[C@@H](c3ccc(F)cc3)N(CCOc3ccccc3)C2)n1 | -4.73% | -0.634% | 1.22% | -8.58% | -14% |
| CC(C)(C)c1coc([C@@H]2COCCN2Cc2ccc(C(=O)O)cc2)n1 | -6.25% | -11.4% | -2.08% | -8.63% | -5.07% |
| CCCn1cc2c(nc(NC(=O)Nc3ccc(OC)cc3)n3nc(-c4ccco4)nc23)n1 | 3.33% | 15.5% | 10.2% | -7.95% | 3.66% |
| CCn1ccc(C(=O)N2CCc3nc(NC)nc(C(=O)N4CCCC4)c3C2)n1 | -1.08% | 1.04% | 0.752% | -1.12% | 2.21% |
| CCCCN(CCCC)CCCN1C(=O)c2cc3occc3n2CC1(C)C(=O)NC1CCCCCC1 (stereo not given) | -1.81% | 2.4% | 0.486% | 8.17% | -2.65% |
| COCC(=O)NC/C=C/c1ccc2ncnc(Nc3ccc(Oc4ccc(C)nc4)c(C)c3)c2c1 | -15.4% | 4.11% | -3.95% | -32.6% | -5.11% |
| CCCn1c(=O)c2ccc(C(=O)NC(C)C)cc2n2c(=O)n(CC(=O)Nc3ccccc3F)nc12 | 2.86% | 0% | -0.622% | -1.75% | 3.82% |
| O=C(NCCCN1CCOCC1)c1cnn2c(-c3ccccc3)cc(-c3ccccc3)nc12 | -10.5% | -8.82% | -11.1% | -46.2% | -21% |
| CCCc1nc(C(=O)N(C)Cc2cnn(-c3ccccc3C)c2)cs1 | -4.35% | -2.25% | -0.851% | -11.9% | -3.44% |
| COC(=O)c1ncn2c1C(=O)N(c1ccc(C(C)C)cc1)C(C)(C(=O)NC1CCCC1)C2 (stereo not given) | 2.19% | 0% | -3.08% | 3.19% | -1.2% |
| COc1ccc(-c2noc([C@@H](C)NCc3ccc(F)cc3)c2C(=O)O)cc1 | -6.2% | -3.92% | -2.1% | -10% | 8.15% |
| Cc1nc(CN(C)C(=O)c2coc(COc3ccc(F)cc3Cl)n2)cs1 | -2.62% | -1.69% | -1.49% | -3.4% | -2.92% |
| COC(=O)C1Cc2c([nH]c3ccccc23)C(C)N1 (stereo not given) | -9.13% | 1.35% | -3.18% | 3.57% | -4.96% |
| COC(=O)c1ccccc1NC(=O)c1ncn2c1C(=O)N(C1CC1)C(C)(C(=O)NCc1ccc(F)cc1)C2 (stereo not given) | -2.63% | 3.54% | -0.274% | -1.61% | 0.28% |
| N#Cc1ccc(C(=O)N2CCOC[C@H](Oc3ccc(C(F)(F)F)cc3)C2)cc1 | -9.81% | -5.09% | -5.96% | -14.1% | -7.49% |
